Laboratory results published in US20080124340A1 (published 2008).

T1: soluble human erythropoietin receptor protein (huEpoR) (human, UniProt P19235 25-250)
T1 construct: extracellular domain; Called soluble huEpoR; also called huEpoR protein; soluble huEpoR
T1 sequence (looked up): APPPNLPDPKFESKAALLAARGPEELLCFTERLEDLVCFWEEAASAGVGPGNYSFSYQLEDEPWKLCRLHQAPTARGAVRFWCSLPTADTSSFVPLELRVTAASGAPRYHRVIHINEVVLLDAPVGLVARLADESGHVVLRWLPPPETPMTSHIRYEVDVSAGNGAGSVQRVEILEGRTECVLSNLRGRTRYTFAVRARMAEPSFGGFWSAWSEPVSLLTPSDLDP

T2: mouse EpoR-Fc protein (muEpoR-Fc) (mouse, UniProt P14753 25-249)
T2 construct: Biotinylated in the assay; also called biotinylated muEpoR-Fc; not shown: Fc part not described
T2 sequence (looked up): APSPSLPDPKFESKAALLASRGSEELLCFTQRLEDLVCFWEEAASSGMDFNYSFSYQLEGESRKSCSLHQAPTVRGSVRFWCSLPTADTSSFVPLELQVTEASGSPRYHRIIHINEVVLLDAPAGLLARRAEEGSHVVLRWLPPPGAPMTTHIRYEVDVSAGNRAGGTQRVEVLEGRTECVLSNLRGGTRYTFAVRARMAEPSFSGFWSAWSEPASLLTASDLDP

T3: cynomolgus monkey EpoR (cynoEpoR) (cynomolgus monkey, UniProt A0A2K5WKK4 25-250)
T3 sequence: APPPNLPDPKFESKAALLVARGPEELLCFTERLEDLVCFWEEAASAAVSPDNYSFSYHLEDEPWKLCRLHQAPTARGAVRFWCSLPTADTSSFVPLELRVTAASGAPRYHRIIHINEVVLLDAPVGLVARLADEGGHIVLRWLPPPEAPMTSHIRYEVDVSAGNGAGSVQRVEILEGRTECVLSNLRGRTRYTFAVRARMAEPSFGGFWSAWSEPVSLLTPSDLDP

T4: human erythropoietin receptor (huEpoR), cell surface expressed (human, UniProt P19235 25-508)
T4 sequence (looked up): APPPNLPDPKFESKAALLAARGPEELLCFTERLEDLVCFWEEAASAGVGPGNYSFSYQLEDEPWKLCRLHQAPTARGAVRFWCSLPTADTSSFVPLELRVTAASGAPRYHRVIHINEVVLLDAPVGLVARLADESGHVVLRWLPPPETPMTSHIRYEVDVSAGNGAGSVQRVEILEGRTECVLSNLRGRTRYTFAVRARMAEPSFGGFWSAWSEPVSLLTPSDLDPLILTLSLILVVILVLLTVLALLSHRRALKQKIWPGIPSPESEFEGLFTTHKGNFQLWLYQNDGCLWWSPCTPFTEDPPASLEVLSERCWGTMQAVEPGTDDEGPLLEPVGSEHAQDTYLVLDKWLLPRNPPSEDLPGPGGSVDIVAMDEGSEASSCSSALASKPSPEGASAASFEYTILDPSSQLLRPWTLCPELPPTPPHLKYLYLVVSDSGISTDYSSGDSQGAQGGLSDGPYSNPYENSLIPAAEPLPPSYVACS


Assays:
[1] = target: T1, soluble human erythropoietin receptor …; test: SPR, BIAcore 3000; scFv-Fc captured by anti-human Fc on CM4 chip, huEpoR as analyte
[2] = target: T2, mouse EpoR-Fc protein (muEpoR-Fc); test: ELISA: antibody coated at 1 µg/ml, biotinylated muEpoR-Fc at 5 µg/ml, streptavidin-HRP, ABTS
[3] = target: T3, cynomolgus monkey EpoR (cynoEpoR); test: SPR, Biacore T100; scFv-Fc captured by anti-human IgG Fc on CM5 chip, EpoR as analyte
[4] = target: T4, human erythropoietin receptor (huEpoR), …; test: cell-based or functional assay

Kd [1]	koff [1]	kon [1]	binding result [2]	Kd [3]	koff [3]	kon [3]	Average EC50, UT-7-luciferase assay [4]	Binder
14900 nM	0.274 s⁻¹	18000 M⁻¹ s⁻¹	–	2310 nM	0.485 s⁻¹	211000 M⁻¹ s⁻¹	0.67 nM	Mxb #30 scFv-Fc (Fc fusion, scFv fused to human IgG1 Fc (maxibody); also called clone 30 scFv-Fc protein) QVQLQESGPGLVKPSQTLSLTCAISGDSVSSNSAAWNWIRQSPSRGLEWLGRTYYRSKWYNDYAVSVKSRMTIKADTSKNQFSLQLNSVTPEDTAVYYCARDEGPLDYWGQGTLVTVSAGGGGSGGGGSGGGGSGAPQAVLTQPSSVSGAPGQRVTISCTGSSSNLGTGYDVHWYQQLPGTAPKLLIYGNSNRPSGVPDRFSGSKSDTSGLLAITGLQAEDEATYYCQSYDFSLSAMVFGGGTKVTVLAAA[letters of human IgG1 Fc omitted]
–	–	–	binds	6.83 nM	0.00107 s⁻¹	156000 M⁻¹ s⁻¹	–	Mxb #10 scFv-Fc (Fc fusion, scFv fused to human IgG1 Fc (maxibody); also called clone 10 scFv-Fc protein) [letters of about 100 residues omitted]DRVAVAGKGSYYFDSWGRGTTVTVSSGGGGSGGGGSGGGGSAQSVLTQPPSVSEAPGQRVTIACSGSSSNIGNNAVSWYQQLPGKAPTLLIYYDNLLPSGVSDRFSGSKSGTSASLAISGLQSEDEADYYCAAWDDSLNDWVFGGGTKVTVLGAAA[letters of human IgG1 Fc omitted]

The remaining lines, values behind:

Binder	Kd [1]	koff [1]	kon [1]	binding result [2]	Kd [3]	koff [3]	kon [3]	Average EC50, UT-7-luciferase assay [4]
Mxb #5 scFv-Fc (Fc fusion, scFv fused to human IgG1 Fc (maxibody); also called clone 5 scFv-Fc protein) EVQLVESGGGLVQPGGSLRLSCAASGFTFSSYWMSWVRQAPGKGLEWVANIKPDGSEKYYVDSVKGRFTISRDNAKNSVYLQMNSLRAEDTAVYYCARVSRGGSYSDWGQGTLVTVSSGGGGSGGGGSGGGGSAQSALTQPASVSGSPGQSITISCTGTSSDVGGYIYVSWYQQHPGKAPKLMIYDVSRRPSGISDRFSGSKSGNTASLTISGLQAEDEADYYCNSYTTLSTWLFGGGTKVTVLGAAA[letters of human IgG1 Fc omitted]	217 nM	0.0612 s⁻¹	280000 M⁻¹ s⁻¹	binds	140 nM	0.0611 s⁻¹	437000 M⁻¹ s⁻¹	0.791 nM
Mxb #2 scFv-Fc (Fc fusion, scFv (VH-linker-VL) fused to human IgG1 Fc (maxibody); also called clone 2 scFv-Fc protein) EVQLVQSGGGLVQPGGSLRLSCAASGFTFSSYWMSWVRQAPGKGLEWVANIKPDGSEKYYVDSVKGRFTISRDNAKNSVYLQMNSLRAEDTAVYYCARVSRGGSYSDWGQGTLVTVSSGGGGSGGGGSGGGGSAQSVLTQPPSASGSPGQSVTISCTGTSSDVGGYNYVSWYQQHPGKAPKLMIYEVSKRPSGVPDRFSGSKSGNTASLTVSGLQPEDEADYYCSSYAGRNWVFGGGTQLTVLGAAA[letters of human IgG1 Fc omitted]	334 nM	0.136 s⁻¹	410000 M⁻¹ s⁻¹	binds	–	–	–	0.604 nM
Mxb #7 scFv-Fc (Fc fusion, scFv fused to human IgG1 Fc (maxibody); also called clone 7 scFv-Fc protein) EVQLVQSGGGLVQPGGSLRLSCAASGFTFSSYWMSWVRQAPGKGLEWVANIKPDGSEKYYVDSVKGRFTISRDNAKNSVYLQMNSLRAEDTAVYYCARVSRGGSYSDWGKGTLVTVSSGGGGSGGGGSGGGGSAQSALTQPASVSGSPGQSIIISCTGTRSDIGGYNYVSWYQHHPGRAPKLIIFDVNNRPSGVSHRFSGSKSGNTASLTISGLQAEDEADYYCNSFTDSRTWLFGGGTKLTVLGAAA[letters of human IgG1 Fc omitted]	271 nM	0.0541 s⁻¹	200000 M⁻¹ s⁻¹	binds	–	–	–	0.468 nM
